# Measured values taken from publication PMC4336329 (PLoS ONE, 2015).
# In all, about 310,000 compounds went through this assay and about 2,200 (0.71%) showed an effect of 50% or more. The effect is printed as a negative number. The list shows a part of the results.
# Molecular target: human ether-à-go-go-related gene (hERG) potassium channel (human, UniProt Q12809)
# Test: primary screen, population patch clamp on CHO cells stably expressing hERG
# Chain of human ether-à-go-go-related gene (hERG) potassium channel (Q12809 whole entry, looked up): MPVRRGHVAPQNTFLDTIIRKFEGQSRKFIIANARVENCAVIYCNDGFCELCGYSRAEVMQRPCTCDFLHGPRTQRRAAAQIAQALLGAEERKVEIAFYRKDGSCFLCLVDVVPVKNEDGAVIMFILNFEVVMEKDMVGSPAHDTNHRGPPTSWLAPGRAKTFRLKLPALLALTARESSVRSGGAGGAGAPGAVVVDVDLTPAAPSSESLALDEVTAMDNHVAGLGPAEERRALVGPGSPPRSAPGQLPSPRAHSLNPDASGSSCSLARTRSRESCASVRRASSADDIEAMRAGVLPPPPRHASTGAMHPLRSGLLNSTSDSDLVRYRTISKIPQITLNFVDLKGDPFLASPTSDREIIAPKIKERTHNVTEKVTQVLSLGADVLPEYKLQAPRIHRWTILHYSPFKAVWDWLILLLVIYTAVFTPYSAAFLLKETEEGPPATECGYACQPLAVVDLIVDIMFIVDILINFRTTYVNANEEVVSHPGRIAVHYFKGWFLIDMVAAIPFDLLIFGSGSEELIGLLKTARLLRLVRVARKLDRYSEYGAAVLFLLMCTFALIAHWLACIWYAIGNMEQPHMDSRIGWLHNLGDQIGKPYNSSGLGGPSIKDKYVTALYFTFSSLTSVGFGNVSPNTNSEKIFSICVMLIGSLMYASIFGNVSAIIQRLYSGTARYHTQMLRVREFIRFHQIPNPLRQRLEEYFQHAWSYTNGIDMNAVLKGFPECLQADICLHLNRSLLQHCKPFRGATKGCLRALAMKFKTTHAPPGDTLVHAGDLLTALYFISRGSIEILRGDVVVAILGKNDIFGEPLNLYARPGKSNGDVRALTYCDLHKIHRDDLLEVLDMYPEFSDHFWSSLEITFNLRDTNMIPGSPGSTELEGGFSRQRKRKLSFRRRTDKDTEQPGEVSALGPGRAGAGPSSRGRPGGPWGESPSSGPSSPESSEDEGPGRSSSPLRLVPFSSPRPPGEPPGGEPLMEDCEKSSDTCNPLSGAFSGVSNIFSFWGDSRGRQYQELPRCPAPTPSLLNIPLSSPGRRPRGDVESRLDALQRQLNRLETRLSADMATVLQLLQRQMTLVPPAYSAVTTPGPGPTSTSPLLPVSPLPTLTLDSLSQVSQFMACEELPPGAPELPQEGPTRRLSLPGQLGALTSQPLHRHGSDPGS
row,Compound,"hERG current change (%, negative = inhibition) at 1uM [%]"
1,Cl.Nc1nc(Nc2ccccc2)nc2ccccc12,-2.62
2,Cc1nc2cc(NC(=O)N3CC4(C)CC3CC(C)(C)C4)ccc2n1C (centres unmarked),-9.66
3,O=C(NN=C1CCCC1)c1cccc(Br)c1,5.26
4,O=C(Nc1ccc(N2CCCC2)cc1)c1ccc(Br)o1,1.75
5,O=C1CN(S(=O)(=O)c2ccccc2C(F)(F)F)CCN1,12
6,CCN(C(=O)CCS(=O)(=O)c1cccc2nonc12)c1ccc(F)cc1,7.31
7,CC(=O)Nc1ccc(-c2cc(C(=O)O)c3ccccc3n2)cc1,16.8
8,COc1ccccc1-c1nc(-c2ccc(C)nc2OC)no1,11.9
9,CC1(C)Cc2c(cnn2-c2ccccc2)C(=O)/C1=N\NC(=O)c1ccccc1N,8.6
10,CCOC(=O)C1CCN(C(=O)c2ccc3c(Cl)c4c(nc3c2)CCCC4)CC1,-2.4
11,CC(=Nc1ccccc1O)c1sc2ccccc2c1O,12.6
12,C=CCNC(=S)NNC(=O)c1ccc([N+](=O)[O-])cc1,13.8
13,COc1ccc(/C(O)=C2/C(=O)C(=O)N(Cc3cccnc3)C2c2ccco2)cc1OC (centres unmarked),11.9
14,CC(=O)Oc1ccccc1N(C(C)=O)S(=O)(=O)c1ccc(C)cc1,12.2
15,Cc1ccc2nc(-c3ccc(NC(=O)CCN4C(=O)c5ccccc5C4=O)cc3)sc2c1,-2.15
16,COn1c(=O)c(=O)n(O)c2ccccc21,6.8
17,C=CCN1C(=O)C2C(C(=O)NC)C3C=CC2(O3)C1C(=O)NCc1ccc(OC)cc1 (centres unmarked),2.15
18,C/C(CC(=O)Nc1ccc2c(c1)OCCO2)=N\NC(=O)c1ccccc1Cl,14.4
19,CSc1nc2c(c(=O)[nH]1)C(c1cccc(Cl)c1Cl)CC(=O)N2 (centres unmarked),18.8
20,CN(CCOc1ccc(Cl)cc1)Cc1cccc(S(=O)(=O)N(C)C)c1,-11.9
21,COc1ccc(-c2cc(-c3n[nH]c(=S)n3-c3ccccc3OC)[nH]n2)cc1,11.1
22,C/C(=N/NC(=O)c1ccncc1)c1c[nH]c2ccccc12,11.1
23,O=C(CC1(O)C(=O)Nc2ccccc21)c1ccc(-n2cccc2)cc1 (centres unmarked),9.56

row,Compound,"hERG current change (%, negative = inhibition) at 1uM [%]"
1,Cc1c(NCc2cccnc2)cccc1C(=O)O,11
2,CN1CCC[C@H]1c1cccnc1,17.5
3,CCOc1ccc2nc(NC(=O)c3ccc(OCC4CCCO4)cc3)sc2c1 (centres unmarked),-4.12
4,COc1ccccc1NC(=O)CCN1CCN(c2ccc(Cl)cc2)CC1,-4.76
5,CCN(CC(=O)Nc1c(F)cccc1F)C(=O)CCC(=O)c1ccc(F)cc1,11.6
6,O=C(c1cccs1)N1CCC(c2nc3c(nnn3Cc3ccccc3)c(=O)[nH]2)CC1,14.7
7,O=C(O)C(Cc1ccc(Cl)cc1)NS(=O)(=O)c1ccc(Cl)cc1 (centres unmarked),18.8
8,CCOC(=O)c1c(C)nn(-c2ccc(NC(=O)/C=C/C(=O)O)cc2)c1C,13.8
9,Cc1ccc(S(=O)(=O)c2nc(-c3ccc(F)cc3)oc2SCC(N)=O)cc1,0.367
10,CCCCc1cc(=O)oc2cc(C)cc(OCC(=O)NCCN3CCOCC3)c12,-2.11
11,Cc1c(C(=O)NCCCN2CCCCC2)oc2ccc3c(c12)C(O)CC1(CCCCC1)O3 (centres unmarked),3.43
12,O=C(NNC(=O)c1ccc(Cl)s1)c1csc(N2CCOCC2)n1,8.72
13,CCOc1ccccc1N1CCN(C(=O)c2ccncc2)CC1,5.06
14,CC(C)N1C(=O)/C(=C/c2nc3ccccc3c(=O)n2-c2ccccc2)c2ccccc21,4.36
15,COc1ccc(OC)c(/C=C/C(=O)N(C)CC(=O)Nc2ccc(C)cc2)c1,-5.02
16,NS(=O)(=O)c1ccc(N/N=C/c2cn(-c3ccccc3)nc2-c2cccs2)cc1,11.4
17,Cc1ccccc1CC(=O)N1CCOCC1,11.5
18,Cn1cccc1CN1CCN(C(=O)COc2ccccc2)CC1,9.91
19,Cc1cccc(CC(=O)NCCn2c(C)cc3ccccc32)c1,7.36
20,CCOc1ccccc1CNc1ccc(N2CCOCC2)c(C(=O)O)c1,-5.58
21,O=C(Nc1cc(S(=O)(=O)N2CCOCC2)ccc1Cl)c1cc(=O)c2ccccc2o1,15.6
22,CC1CN(CC(=O)NC(C)c2ccccc2)CC(C)O1 (centres unmarked),15.5
23,Cc1onc(-c2ccc(Cl)cc2Cl)c1C(=O)/C=C/N(C)C,9.02

row,Compound,"hERG current change (%, negative = inhibition) at 1uM [%]"
1,COC(=O)c1ccc(CSc2nc(-c3ccccc3)cs2)o1,13.6
2,O=C(/C=C/c1ccccc1)Nc1cc(S(=O)(=O)N2CCOCC2)ccc1N1CCCC1,15.7
3,O=C1CC(=O)N(CCc2ccccc2)C(=O)N1CCc1ccccc1,5.24
4,CC(=O)Nc1ccc(NC(=O)C(C)OC(=O)C2(c3ccc(F)cc3)CCCC2)cc1 (centres unmarked),0.852
5,CCOc1cc(/C=N/N2CCOCC2)ccc1OCc1ccc(C(=O)OC)o1,3.55
6,CCCCC(=O)Nc1cccc(-c2nc3ncccc3o2)c1,-2.95
7,Cc1ccc(NC(=S)NNC(=O)c2c(Cl)c(C)nn2C)cc1,9.97
8,Cc1cc2ccccn2c1C(=O)c1cccc(S(=O)(=O)N2CCOCC2)c1,16.9
9,CCCc1nc(N)c(C#N)c(N)c1C#N,8.26
10,C[Si](C)(C)n1ccnc1,13.6
11,NC(=S)N(c1ccccc1)c1ccccc1,7.38
12,COc1cccc(NC(=S)NCc2ccco2)c1,-1.17
13,COc1ccc(C(=O)Nc2ccc(N3CCN(C(=O)C(C)C)CC3)cc2)cc1[N+](=O)[O-],15.9
14,O=C(Nc1nnc(-c2cccs2)s1)c1cccc(F)c1,13.9
15,O=C(NC1CCCCC1)C(c1ccc2ncccc2c1)N(Cc1ccc2c(c1)OCO2)C(=O)c1ccc2c(c1)OCCO2 (centres unmarked),6.05
16,NC(=O)NC(=O)C(c1ccccc1)N1CCN(S(=O)(=O)c2ccc(Br)s2)CC1 (centres unmarked),4.82
17,CCOc1ccc(N(CC(=O)Nc2ccccc2Cl)S(C)(=O)=O)cc1,8.85
18,CCn1c(CNc2ccc(F)cc2)nnc1SCC(=O)N1CCCc2ccccc21,-12.3
19,O=C(/C=C/c1cccnc1)c1ccc(O)cc1,1.87
20,COC(=O)COc1ccc2cc(-c3ccccc3)c(=O)oc2c1,12
21,Cn1c(N2CCOCC2)c(C#N)c2ccccc21,13.6
22,CSCCC(NS(=O)(=O)c1ccc(Cl)cc1)C(=O)OCC(=O)N(C(C)C)C(C)C (centres unmarked),4.87
23,CN(c1ccc(OCC(=O)Nc2ccc3[nH]c(=O)[nH]c3c2)cc1)S(=O)(=O)c1ccc(Cl)cc1,4.92

row,Compound,"hERG current change (%, negative = inhibition) at 1uM [%]"
1,O=C(c1ccc(F)cc1Cl)N1CCN(S(=O)(=O)c2cccs2)CC1,6.46
2,Cc1coc2cc3oc(=O)c(CCC(=O)NCC(=O)O)c(C)c3cc12,11.6
3,Cc1cccc(N(Cc2cc3ccccc3[nH]c2=O)S(C)(=O)=O)c1,5.48
4,C=C(C)Cn1c(N2CCC(Cc3ccccc3)CC2)nc2c1c(=O)[nH]c(=O)n2C,3.87
5,CCOc1ccc(S(=O)(=O)N2CCCCC2)cc1NC(=O)CC1OC(=O)c2ccccc21 (centres unmarked),-3.94
6,O=C(Cc1ccc(NS(=O)(=O)c2cccc(C(F)(F)F)c2)cc1)NCCN1CCOCC1,5.88
7,CCCCN1CC[C@H]2C=CC[C@@H](C(=O)Nc3nccs3)[C@H]2C1=O,16.1
8,COc1ccc(N2CC(C(=O)OCC(=O)c3cccc(OC)c3)CC2=O)cc1 (centres unmarked),9.44
9,CC1(C)CC(N2CCN(c3ccccc3)CC2)=CC(=[N+]2CCCC2)C1.[I-],5.76
10,CCn1c(=O)c(C(=O)NCc2ccc(OC)cc2)c(O)c2ccccc21,4.61
11,CCCC(=O)Oc1ccc(N(C(=O)CCC)S(=O)(=O)c2cccc([N+](=O)[O-])c2)cc1,6.26
12,Cl.O=C(CNCc1cccs1)Nc1ccc(OC(F)(F)F)cc1,3.26
13,COc1ccc(OC)c(NC(=O)c2cc3sccc3n2C)c1,6.78
14,CC(C)(C)NC(=O)Cn1cnc([N+](=O)[O-])n1,-1.83
15,CCNC(=O)/C(C#N)=C/c1c(N2CCN(c3ccccc3)CC2)nc2c(C)cccn2c1=O,-0.0597
16,Cc1ccccc1NCC(=O)N/N=C/c1ccc([N+](=O)[O-])cc1,6.35
17,Cc1ccc2c(CN3CCN(S(=O)(=O)/C=C/c4ccccc4)CC3)cc(=O)oc2c1,-8.17
18,O=C(Nc1ccccc1C(=O)Nc1ccccc1)c1ccccc1F,16.5
19,O=C(CCN1CCOCC1)N/N=C/c1cc(Br)cc(Br)c1O,10.4
20,c1ccc2c(c1)ccc1nnc(-c3ccc4c(c3)OCO4)n12,13.4
